One molecule from patent publication US10357514B2, “Treatment of cancer using anti-CD19 Chimeric Antigen Receptor” (The Trustees of the University of Pennsylvania, priority 2014, dated 2019) can be followed below.

For the experiment, the system named is A/H1N1 strain A/New Jersey/8/76. The class given is in vivo, human. As to conditions: RAD001 cohorts.

`CO[C@H]1C[C@@H]2CC[C@@H](C)[C@@](O)(O2)C(=O)C(=O)N2CCCC[C@H]2C(=O)O[C@H]([C@H](C)C[C@@H]2CC[C@@H](OCCO)[C@H](OC)C2)CC(=O)[C@H](C)/C=C(\C)[C@@H](O)[C@@H](OC)C(=O)[C@H](C)C[C@H](C)/C=C/C=C/C=C/1C` [RAD001, (1R,9S,12S,15R,16E,18R,19R,21R,23S,24E,26E,28E,30S,32S,35R)-1,18-dihydroxy-12-{(1R)-2-[(1S,3R,4R)-4-(2-hydroxyethoxy)-3-methoxycyclohexyl]-1-methylethyl}-19,30-dimethoxy-15,17,21,23,29,35-hexamethyl-11,36-dioxa-4-aza-tricyclo[30.3.1.04,9]hexatriaconta-16,24,26,28-tetraene-2,3,10,14,20-pentaone]: the “increase in HI GMT ratio for heterologous strain versus placebo” value is on record as “higher”.
